# Hit rate of the full screen: of about 300,000 compounds, about 22,000 (7.3%) were called active. Inconclusive results, whose numbers are uncertain, are shown with a selection of clear calls. Cut-off read from the data, not from the text of the source: active = activity score below about -60%; inconclusive = mostly about -28% to -61%; inactive = positive scores.
# Assay: Activators via SNCA 5'UTR binding, MLPCN (AID 1814)
# Settings: alpha-synuclein 5'UTR reporter, activators screen; active compounds read low; tested at 7.5 µM
row,Compound,activity score
1,Cc1ccsc1/C=N/Nc1cccc(C(=O)O)c1,inactive: 105%
2,CCOc1ccc(NC(=O)Nc2cc(C)on2)cc1,active: -128%
3,O=C(c1ccc(-c2ccc([N+](=O)[O-])cc2)o1)N1CCCC(C(F)(F)F)C1 (configuration not stated),inconclusive: -58.1%
4,Cc1[nH]n(-c2ccccc2)c(=O)c1C(c1ccc(C(=O)O)cc1)c1c(C)[nH]n(-c2ccccc2)c1=O,inconclusive: -52.4%
5,COC(=O)Cn1c(=NC(=O)c2ccc(OC)cc2)sc2cc(OC)ccc21,inconclusive: -52.2%
6,CCC(=O)NCCc1nc2cc(NC(=O)c3cccs3)ccc2n1C,inconclusive: -59.8%
7,O=C(Nc1nnc(C2CC2)s1)c1cc([N+](=O)[O-])ccc1N1CCCCC1,inconclusive: -39.8%
8,Cc1ccc2nc3sc(C(=O)Nc4c(C)[nH]c(=O)[nH]c4=O)c(N)c3cc2c1,inconclusive: -45.5%
9,O=C(Cc1noc2ccccc12)Nc1ccc2ccccc2c1,inconclusive: -52.8%
10,O=C(CSc1nnc(NC(=O)c2ccccc2)s1)NCC1CCCO1 (configuration not stated),inconclusive: -61.3%
11,O=C(N=Nc1c(O)n(C2OC(=O)c3ccccc32)c2ccccc12)c1ccc(O)cc1 (configuration not stated),inconclusive: -54.9%
12,C[C@@H](NC(=O)[C@@H]1Cc2ccccc2CN1)C(=O)Nc1ccc2c(c1)OCO2,inconclusive: -48.5%
13,CCN(CC)S(=O)(=O)c1ccc(C(=O)OCC(=O)Nc2sc3c(c2C#N)CCCCC3)cc1,inconclusive: -47.6%
14,O=C(O)c1ccc(-c2noc(-c3ccccc3C(F)(F)F)n2)cc1,active: -109%
15,Cc1csc(NC(=O)Nc2cccc(Cl)c2)n1,active: -203%
16,Cc1ccc(C(=O)N/C(=C\c2ccc(F)cc2)C(=O)NCCCn2ccnc2)cc1,inconclusive: -32.7%
17,O=S(=O)(c1ccc(Br)cc1)N1CCC(c2nc3ccccc3[nH]2)CC1,inactive: 78.3%
18,ClC1=C(Cl)C(Cl)=C(Cl)C1=C/C=C/c1ccccc1,inactive: 113%
19,N#Cc1c(NC(=O)CSc2nc3ccccc3s2)sc2c1CCCC2,inconclusive: -50.5%
20,O=[N+]([O-])c1ccc(S(=O)(=O)CC(CN2CCOCC2)N2CCOCC2)cc1 (configuration not stated),inconclusive: -44.7%
21,Cn1c(SCc2nc(-c3ccc(Cl)cc3)no2)nnc1-c1ccccc1,inconclusive: -57.7%
22,CN(C)CCCN(C(=O)c1ccc(S(=O)(=O)N2CCc3ccccc32)cc1)c1nc2ccc(Cl)cc2s1,inactive: 58.1%
23,CCOC(=O)N1CCN(Cc2cn[nH]c2-c2ccc(-c3ccccc3)cc2)CC1,inconclusive: -54.7%

row,Compound,activity score
1,COc1cccc(/C=C2\C=C(c3ccc(C)cc3)OC2=O)c1OC(C)=O,active: -65.8%
2,COCCNC(=O)/C(C#N)=C/C=C/c1ccccc1,inconclusive: -58.5%
3,C=CCn1c(N)c(C(=O)Nc2ccccc2)c2nc3ccccc3nc21,inactive: 59.5%
4,Cc1ccc2nc(-c3ccc(-c4cccc(Cl)c4)cc3)c(NCc3ccccc3)n2c1,active: -67.6%
5,CN(C)S(=O)(=O)N1CCN(S(=O)(=O)c2ccccc2)CC1,inconclusive: -25.7%
6,CCn1c(SCc2ccc(C(=O)Nc3nccs3)cc2)nnc1-c1ccc(N)cc1,inconclusive: -42.6%
7,O=C(CNS(=O)(=O)c1ccc(Br)s1)Nc1ccc2c(c1)OCCO2,inconclusive: -54.8%
8,O=C(CSc1n[nH]c(-c2ccccn2)n1)Nc1ccccc1,inactive: 56.8%
9,CCCCCC(=O)Nc1ccc(N2CCN(CC)CC2)c(Cl)c1,active: -152%
10,CCOC(=O)COc1cccc2c(=O)n(CC(=O)NCc3ccccc3)ccc12,inactive: 57%
11,O=C1C2CC=C(Cl)CC2C(=O)N1CCc1c[nH]c2ccccc12 (configuration not stated),inconclusive: -55.1%
12,CCCOc1ccc(C2=NNC(=O)CC2)cc1,inactive: 77.5%
13,Cc1c(C(=O)N(C)c2cccc(Cl)c2)cnn1-c1ccccc1,active: -104%
14,O=C(Cn1ccsc1=NC(=O)C(F)(F)F)c1ccccc1,active: -123%
15,CCOc1ccc(OCC(=O)Nc2ccccc2C(F)(F)F)cc1,inconclusive: -48.1%
16,Cn1cccc1CC(=O)N/N=C/C=C/c1ccccc1,inconclusive: -55.2%
17,OC(COc1ccc2c(c1)CCC2)Cn1cnc2ccccc21 (configuration not stated),inconclusive: -48.6%
18,COC(=O)c1cc(Cl)nc2ccccc12,inconclusive: -43.5%
19,C[C@@H]1C=C[C@](Cc2ccccc2)(C(=O)NCC2CC2)N1C(=O)c1ccccc1,inconclusive: -53.2%
20,CCCC(=O)N1CCN(c2ccc(NC(=O)c3ccc(Br)o3)cc2)CC1,inconclusive: -59.4%
21,N#CCCN(C(=O)CCl)c1cccc(Cl)c1,inconclusive: -47.5%
22,COc1cc(C(=O)NCc2ccc(-c3nc4ccccc4s3)cc2)cc(OC)c1OC,inconclusive: -45.3%
23,O=C1CC(c2ccccc2F)c2cc3c(cc2N1)CCC3 (configuration not stated),inactive: 64.6%

row,Compound,activity score
1,CNC(=O)c1cc2c(=O)n3cccc(C)c3nc2n(C(C)C)c1=N,inconclusive: -54.6%
2,O=C(c1ccc(S(=O)(=O)c2ccccc2Cl)c([N+](=O)[O-])c1)N1CCCCCC1,active: -97.9%
3,Cc1ccc(S(=O)(=O)N2CCCC(C)C2)cc1 (configuration not stated),inconclusive: -41.1%
4,O=C(NN1CCOCC1)c1cccc(COc2cccc(Br)c2)c1,inconclusive: -54.9%
5,Cc1cccc(C(=O)O/N=C(\N)c2ccccn2)c1,inactive: 70.1%
6,C=CCn1c(O)c(CN2CCN(Cc3ccccc3)CC2)c(C)c(C#N)c1=O,inconclusive: -35.7%
7,O=C(NCCC(=O)N1CCCCC1)c1ccc(Br)cc1,inconclusive: -57.6%
8,CCN(CC)c1ccc(/C=N/n2c(C)nc3ccccc3c2=O)cc1,inconclusive: -57.9%
9,O=C(Cc1cccs1)N1CCN=C1SCc1ccccc1F,inconclusive: -53.7%
10,O=c1oc(-c2ccco2)nc2sc3c(c12)CCCC3,inconclusive: -54.5%
11,O=c1c(C=NCCCO)c(-c2ccccc2)[nH]n1-c1nc2ccccc2s1,inactive: 59.9%
12,Cc1ccc(C(=O)Nc2cnc3ccccc3c2)cc1,inactive: 103%
13,Cc1cccc(C(=O)NNC2=CC(=O)CC(C)(C)C2)c1O,inconclusive: -57.6%
14,COc1ccc(/C=C(\CC(=O)O)c2nc3ccccc3o2)cc1,active: -109%
15,COc1ccc(NC(=O)c2ccccn2)cc1,inactive: 74.5%
16,COc1ccc(-c2nn(-c3ccccc3)cc2/C=N/NC(=O)c2cccc(S(=O)(=O)Nc3ccccc3OC)c2)cc1,inconclusive: -54.7%
17,COC(=O)c1cccc(NC(=O)C2COc3ccccc3O2)c1C (configuration not stated),inconclusive: -61.3%
18,CCCC(=O)Nc1nc(-c2ccc(OC)cc2)cs1,active: -123%
19,CCCCN1C(=O)/C(=C2\SC(N3CCOCC3)=NC2=O)c2ccccc21,inconclusive: -54.1%
20,COC(=O)C1(C)CCC(C(=O)Nc2ccccc2)C1(C)C (configuration not stated),inactive: 62%
21,C/C=C/c1ccc(OCCCCOc2ccc(OC)cc2)c(OC)c1,inconclusive: -35.4%
22,O=C(CSc1ccccn1)Nc1ccc2c(c1)OCO2,inconclusive: -59.5%
23,Cn1c(C2=C(O)CN(c3ccccc3)C2=N)nc2ccccc21,inconclusive: -45.2%

row,Compound,activity score
1,Cc1ccc(C(=O)Nc2ccc(C(=O)O)cc2NC(=O)c2ccc(C)cc2)cc1,inconclusive: -52.3%
2,N/C(=N\OC(=O)COc1ccc([N+](=O)[O-])cc1)c1cccnc1,inconclusive: -31.3%
3,CCCn1c(=O)c(C(=O)Nc2cccc(C)c2)c(O)c2ccccc21,inconclusive: -50.7%
4,O=C1C(Nc2ccccc2)=C(NS(=O)(=O)c2ccccc2)C(=O)c2ccccc21,active: -74.8%
5,Oc1c(Cl)cc(Cl)cc1/C=C/c1ccc2cccc(O)c2n1,inconclusive: -58.1%
6,O=C(NCCC(=O)N1CCc2ccccc21)c1ccco1,inconclusive: -58.7%
7,CCCOc1ccc(-c2nnc(-c3ccco3)o2)cc1,inactive: 64.7%
8,Cn1c(/C(C#N)=C/Nc2ccccn2)nc2ccccc21,inconclusive: -37.1%
9,CCSc1ccc(C(=O)Nc2ccc(Br)cn2)cc1[N+](=O)[O-],inconclusive: -49.5%
10,COc1ccc(NC(=O)CSc2nccn2-c2ccccc2)cc1,inconclusive: -56.9%
11,O=C(N/N=C/c1cccs1)c1cc(-c2ccncc2)nc2ccccc12,inactive: 61.9%
12,Cc1nc2cc(Cl)c(Cl)cc2nc1C,inconclusive: -56.9%
13,CC(C)N1CCc2c(sc(NC(=O)c3ccc([N+](=O)[O-])o3)c2C(N)=O)C1,inactive: 104%
14,O=C(Nc1ccc(-c2nc3ccccc3s2)c(O)c1)C1=COCCO1,active: -79.8%
15,CCOc1ccc(NC(=S)Nc2ccc3nsnc3c2)cc1,inconclusive: -59.3%
16,O=C(c1ccc(CS(=O)c2ccccc2Cl)o1)N1CCN(c2ccccc2)CC1 (configuration not stated),inactive: 110%
17,O=C(Nc1cccc(O)c1)c1ccc(Br)cc1,active: -181%
18,O=C1NN=COc2ccccc21,inconclusive: -40.6%
19,Cc1ccc(OCC(=O)Nc2sc3c(c2C#N)CCC3)cc1C,inconclusive: -60.5%
20,O=C(c1ccccc1-c1nc(-c2ccccc2)no1)N1CCCC1,inconclusive: -45.8%
21,CCOc1ccc(C(=O)/C=C/c2ccccc2C(F)(F)F)cc1,inconclusive: -58.4%
22,COc1cc(C(=O)c2cocc2C(=O)c2ccc3c(c2)OCO3)cc(OC)c1OC,inactive: 66.7%
23,COc1ccccc1/C=C\C=N\NC(=O)c1ccco1,active: -97.9%

# Reference: PubChem BioAssay AID1814 (Broad Institute, 2009)
